Data as given in patent publication US20150209426A1, “TREATMENT OF CANCER” (Boehringer Ingelheim International GmbH, priority 2014, published 2015).
“Also recorded” adds a separate entry of the source.

Legend:
[1] = tested on: pAKT in Ewing's sarcoma models; conditions: models of Ewing's sarcoma, with rapamycin; cited from earlier work
[2] = tested on: cleaved PARP in MCF7aro cells; test: Cleaved PARP (apoptosis) in MCF7aro cell lysates by Western blot and MSD Apoptosis Panel; type: cell-based, human; conditions: 72 h, 1 μM of each agent, versus vehicle-treated control
Protocol: 1.5×10^6 MCF7aro cells were plated in 10 cm dishes in starvation medium (MEM alpha without phenol red, supplemented with 10% charcoal stripped FBS, 2 mM GlutaMAX and 1 mM sodium pyruvate). After overnight incubation, medium was changed to assay medium (MEM alpha without phenol red, supplemented with 10% charcoal stripped FBS, 2 mM GlutaMAX, 1 mM sodium pyruvate and 1 nM androstenedione) and the cells were treated with vehicle (DMSO), or 1 μM of IGF Ab 60833, or 1 μM exemestane, or 1 μM everolimus, or a combination of exemestane and everolimus, or a combination of all three inhibitors. At 72 h post treatment, the cells were lysed on ice with MSD Tris Lysis Buffer containing 20 mM Tris pH 7.5, 150 mM NaCl, 1 mM EDTA, 1 mM EGTA, 1% Triton X-100, completed with protease and phosphatase inhibitor cocktails. Prior to use, freshly prepared 2 mM PMSF was added to the buffer.
(§1) Total protein was isolated and protein concentration was quantified by Bradford protein assay according to the manufacturer's instructions. […]
Cells lysates were prepared according to the Meso Scale Discovery cell lysis protocol. 20 μg of clarified lysate was analyzed in duplicates with MSD Apoptosis Panel Whole Cell Lysate Kit, measuring cleaved PARP signals, according to the manufacturer's instructions. Plates were read on the SECTOR Imager 6000 plate reader.

[3] = tested on: AKT and S6 phosphorylation in MCF7aro cells; test: Western blot assessment of AKT and S6 phosphorylation status in MCF7aro cell lysates; type: cell-based, human; conditions: 24 hours, 100 nM IGF Ab 60833, 0.32 nM everolimus, versus vehicle (DMSO) control
Protocol: 1.8×10^6 MCF7aro cells were plated in 10 cm dishes in starvation medium (MEM alpha without phenol red, supplemented with 10% charcoal stripped FBS, 2 mM GlutaMAX and […]). After overnight incubation, medium was changed to assay medium (MEM alpha without phenol red, supplemented with 10% charcoal stripped FBS, 2 mM GlutaMAX, 1 mM sodium pyruvate and 1 nM androstenedione) and the cells were treated with 100 nM of IGF Ab 60833 or 0.32 nM of everolimus or a combination of antibody and mTORC1 inhibitor. As a control, cells were treated with vehicle (DMSO) only. At 24 h post treatment, the cells were lysed on ice with MSD Tris Lysis Buffer containing 20 mM Tris pH 7.5, 150 mM NaCl, 1 mM EDTA, 1 mM EGTA, 1% Triton X-100, completed with protease and phosphatase inhibitor cocktails. Prior to use, freshly prepared 2 mM PMSF was added to the buffer.
as §1
The effect of IGF Ab 60833 and everolimus, as single agents and in combination, on the phosphorylation of AKT at serine 473 (pAKT S473) and threonine 308 (pAKT T308), and of S6 (pS6) at serine 235/236 was monitored by Western blot analysis of MCF7aro cell lysates prepared 24 hours post treatment.

B1: IGF Ab 60833: fully human monoclonal IgG1 antibody binding IGF-1 and IGF-2; heavy chain SEQ ID NO: 39, light chain SEQ ID NO: 40 (antibody, listed as Homo sapiens)
heavy: QVELVESGGGLVQPGGSLRLSCAASGFTFTSYWMSWVRQAPGKGLELVSSITSYGSFTYYADSVKGRFTISRDNSKNTLYLQMNSLRAEDTAVYYCARNMYTHFDSWGQGTLVTVSS[gap - human IgG1 constant region]
light: DIVLTQPPSVSGAPGQRVTISCSGSSSNIGSNSVSWYQQLPGTAPKLLIYDNSKRPSGVPDRFSGSKSGTSASLAITGLQSEDEADYYCQSRDTYGYYWVFGGGTKLTVLGQPKAAPSVTLFPPSSEELQANKATLVCLISDFYPGAVTVAWKGDSSPVKAGVETTTPSKQSNNKYAASSYLSLTPEQWKSHRSYSCQVTHEGSTVEKTVAPTECS
modifications: /mol_type=“protein” /organism=“Homo sapiens”
effect on rapamycin-induced increase in pAKT [1]: inhibit the rapamycin induced increase in pAKT; also recorded: inhibit the rapamycin-induced increase in pAKT | levels of cleaved PARP (marker for apoptosis) [2]: comparable to or only marginally higher than the level in the vehicle-treated control | pAKT S473 and T308 levels by Western blot [3]: did not result in inhibition | pS6 (S235/236) signal by Western blot [3]: did not result in inhibition
